Test results as given in patent US20200338132A1, “COMPOSITIONS AND METHODS FOR THE EXPANSION OF HEMATOPOIETIC STEM AND PROGENITOR CELLS AND TREATMENT OF INHERITED METABOLIC DISORDERS” (Magenta Therapeutics Inc., priority 2018, published 2020).

How the values were obtained:
cord blood CD34+ cells = test: phenotypic expansion of cord blood CD34+ cells, CD90+ cell number at optimal concentrations; format: cell-based, human; conditions: relative to vehicle-treated cells
CD90− cells = test: CD90 expression on sorted CD90− cells cultured 8 days with compounds, FACS; format: cell-based, human
Source text: FIG. 20 is a diagram for an experimental protocol to determine the disconnect between phenotype and function of CD90+ cells. Unsorted cells will be sorted using CD90 and CD34 as markers, and cultured with compounds. Cultured CD34+CD90+ and CD34+CD90− cells will be phenotyped in vitro via FACS and/or assayed for colony formation on methylcelulose.
TSA and VAP (concentrations in μM, as shown).
First, unsorted cells were sorted using CD34 and CD90 into two populations, a CD34+CD90− population and a CD34+CD90+ population. CD90− cells were cultured for 8 days with DMSO, SR1, UM171 or valproic acid (VPA). These cultured cells were the phenotyped for CD34 and CD90 expression using FACS. […] Second, cells cultured with various compounds were assessed for their ability to form colonies on methylcelulose.

[1] = patients transplanted with SR1-expanded cord blood cells versus historical controls; cited from earlier work
[2] = test system: CD90− and CD90+ sorted cells; test: colony formation on methylcellulose of sorted CD90− or CD90+ cells cultured with compounds; conditions: versus vehicle; for colony formation of CD90− sorted cells: TSA 30 nM and 100 nM
CD34+ cord blood cells = conditions: known from the art; cited from earlier work
[3] = test system: mobilized peripheral blood cells; test: 7-day expansion of mobilized peripheral blood cells, 10-point dose response, FACS for CD34 and CD90; conditions: after 7 days of expansion
[4] = Scriptaid 100 nM and 300 nM, TSA 30 nM

Structure (SMILES)	CD90+ cell number following expansion (cord blood CD34+ cells)	CD90 expression of sorted CD90− cells after culture (CD90− cells)	decrease in time to neutrophil recovery [1] [weeks]	colony formation of CD90− sorted cells ([2]; Scriptaid 100 nM and 300 nM)	colony formation of CD90+ sorted cells [2, 4]	CD90 expression in CD90− cells (CD34+ cord blood cells)	colony formation of CD90+ sorted cells ([2]; TSA 100 nM)	number of CD90+ cells [3]
Nc1ccccc1NC(=O)c1ccc(CNC(=O)OCc2cccnc2)cc1 [Entinostat]	increased number of CD90+ expressing cells							
Cc1cc(C)cc(C(=O)NOCCCCCC(=O)NO)c1 [LMK235]	increased number of CD90+ expressing cells							
CC(C)n1cnc2c(NCCc3ccc(O)cc3)nc(-c3csc4ccccc34)nc21 [SR1, StemRegenin1]		remained uniformly CD90−	2	none of these cultured cells were able to form colonies better than the vehicle alone	significantly better than vehicle alone			
O=C(CCCCCN1C(=O)c2cccc3cccc(c23)C1=O)NO [Scriptaid]				none of these cultured cells were able to form colonies better than the vehicle alone	able to form colonies, at least at approximately the same level as vehicle alone			
CC(/C=C/C(=O)NO)=C\[C@@H](C)C(=O)c1ccc(N(C)C)cc1 [TSA, trichostatin A]				none of these cultured cells were able to form colonies better than the vehicle alone	able to form colonies, at least at approximately the same level as vehicle alone	upregulate CD90 in CD90− cells	exception	greatest increase in the number of CD90+ cells
CCCC(CCC)C(=O)O [VPA, valproic acid]	increased number of CD90+ expressing cells	gained CD90 expression				upregulate CD90 in CD90− cells		greatest increase in the number of CD90+ cells
